# Experimental data as given in PubChem BioAssay AID504332 (National Center for Advancing Translational Sciences (NCATS), 2011).
# Where “and” joins values, the source holds several entries; their conditions need not be identical. Equal values may be shown once. Hit rate of the full screen: of about 350,000 compounds, about 31,000 (8.9%) were called active. The inconclusive results got no clear call from the source; some entries with a clear call stand among them for comparison. Calls come from the whole dose curve; as a rule, active = well fitted inhibition curve with a large enough effect; inconclusive = small, poorly fitted or top-dose-only effect; inactive = no such curve, though single readings can be large or run the other way. A potency beside an inconclusive call is a rough fit, not a confirmed value.
# Molecular target: Histone-lysine N-methyltransferase EHMT2 (Homo sapiens) (UniProt Q96KQ7)
# Assay: qHTS Assay for Inhibitors of Histone Lysine Methyltransferase G9a; note: nearly all actives have a fitted effect of over 75% in size
# Conditions: G9a H3K9 monomethylation, AlphaScreen, 2 h; activity, negative = inhibition: at 59 µM (top of the series) unless noted
# Method in brief: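 AlphaScreen read-out: biotin-H3K9 peptide (500 nM) methylation by 20 nM enzyme with 20 uM SAM, 2 h at room temperature after 15 min compound preincubation; anti-monomethyl H3K9 antibody plus donor/acceptor beads, 10 min dark.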
# % is set by controls: 0 for no effect and ±100 for the full control effect; potency is the fitted concentration of half-maximal effect; tags give direction and shape of the fitted curve.
# UniProt Q96KQ7, sequence (Q96KQ7 whole entry, looked up): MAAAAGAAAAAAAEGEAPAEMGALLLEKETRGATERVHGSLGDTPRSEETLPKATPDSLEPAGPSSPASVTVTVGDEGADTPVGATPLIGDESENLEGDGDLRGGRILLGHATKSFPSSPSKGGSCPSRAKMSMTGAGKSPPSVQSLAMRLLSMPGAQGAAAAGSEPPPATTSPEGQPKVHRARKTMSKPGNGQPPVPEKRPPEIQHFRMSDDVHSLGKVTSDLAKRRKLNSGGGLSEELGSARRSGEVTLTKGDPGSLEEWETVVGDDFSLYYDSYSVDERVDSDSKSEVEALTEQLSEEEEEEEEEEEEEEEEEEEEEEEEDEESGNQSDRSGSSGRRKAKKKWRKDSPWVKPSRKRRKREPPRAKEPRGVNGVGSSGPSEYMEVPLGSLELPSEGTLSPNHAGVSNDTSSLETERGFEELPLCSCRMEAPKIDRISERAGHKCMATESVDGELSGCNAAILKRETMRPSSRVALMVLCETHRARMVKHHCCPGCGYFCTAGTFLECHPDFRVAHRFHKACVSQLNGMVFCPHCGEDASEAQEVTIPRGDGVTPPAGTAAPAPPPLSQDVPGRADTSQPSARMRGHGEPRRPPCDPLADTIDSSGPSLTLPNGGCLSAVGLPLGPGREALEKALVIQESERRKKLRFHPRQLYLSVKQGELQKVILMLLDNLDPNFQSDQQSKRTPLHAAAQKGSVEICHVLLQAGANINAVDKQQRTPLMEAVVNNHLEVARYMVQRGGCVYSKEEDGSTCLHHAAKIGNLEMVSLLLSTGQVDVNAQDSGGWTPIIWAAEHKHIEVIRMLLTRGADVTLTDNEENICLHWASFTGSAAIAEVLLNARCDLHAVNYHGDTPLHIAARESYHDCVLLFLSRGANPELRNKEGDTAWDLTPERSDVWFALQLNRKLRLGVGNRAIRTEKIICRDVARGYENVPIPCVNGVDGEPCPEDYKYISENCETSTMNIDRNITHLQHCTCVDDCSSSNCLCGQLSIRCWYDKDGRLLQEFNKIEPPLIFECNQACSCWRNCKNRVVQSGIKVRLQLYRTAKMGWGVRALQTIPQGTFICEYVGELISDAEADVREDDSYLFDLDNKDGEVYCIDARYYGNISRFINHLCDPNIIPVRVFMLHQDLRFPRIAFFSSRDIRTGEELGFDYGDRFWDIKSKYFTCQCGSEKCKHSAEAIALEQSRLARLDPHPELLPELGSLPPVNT
SMILES,Potency,"activity, negative = inhibition"
O=C(CCc1nnc(C2(c3ccc(Cl)cc3)CCC2)o1)NC1CC1,"inconclusive: 0.282 µM [inhibitor, partial curve, poor fit]",
O=C(CCN1C(=O)S/C(=C\c2ccccc2)C1=O)Nc1ccc(S(=O)(=O)Nc2nccs2)cc1,"inconclusive: 89.1 µM [inhibitor, single point]",
Cc1[nH]c2ccccc2c1/C=N/Nc1ccccn1,"inconclusive: 50.1 µM [inhibitor, partial curve, poor fit]",
COc1cc(NS(=O)(=O)c2ccc(Nc3nc(-c4cccc([N+](=O)[O-])c4)cs3)cc2)nc(OC)n1,active: 50.1 µM,
CCN(c1ccccc1)c1cc2ccccc2c(=O)[nH]1,"inconclusive: 25.1 µM [inhibitor, partial curve, poor fit]",
CCn1c(C)[n+](CCCS(=O)(=O)[O-])c2cc(Cl)c(Cl)cc21,,inconclusive: -97.4% [inhibitor]
CCc1cccc(NC(=O)CCCCCC2NC(=O)NC2C)c1 (stereo unspecified),active: 1.26 µM,
NC(=O)CSc1nnc2ccc(-c3ccco3)nn12,"inconclusive: 44.7 µM [inhibitor, partial curve, poor fit]",
O=C(Nc1cccc(F)c1)c1cc(S(=O)(=O)N2CCOCC2)ccc1N1CCCC1,,inconclusive: -65.2% [inhibitor] [at 12.7 µM]
CCCCN(CCCNC(=O)c1ccc2nc(N3CCOCC3)sc2c1)Cc1ccccc1,"inconclusive: 79.4 µM [inhibitor, single point]",
C=C1CC[C@H](O)C/C1=C/C=C1\CCC[C@]2(C)[C@@H]([C@H](C)/C=C/[C@H](C)C(C)C)CC[C@@H]12,active: 14.1 µM,
CCN(CC)c1ccc(CN(C(=O)Cc2coc3ccc(C)cc23)C2CCS(=O)(=O)C2)cc1 (stereo unspecified),active: 10 µM,
CN(CC(=O)Nc1nc2ccccc2s1)S(=O)(=O)c1ccc(Br)cc1,"inconclusive: 44.7 µM [inhibitor, partial curve, poor fit]",
CC(C)Sc1nc2c(c(=O)[nH]c(=O)n2C)n1Cc1ccccc1,,inactive: 12.5% [at 102 µM]
Cc1cc2cc(CNC(=O)Cc3ccc([N+](=O)[O-])cc3)ccc2n1C,"inconclusive: 39.8 µM [inhibitor, partial curve, poor fit]",
CCn1nc(C)c2c(-c3ccccc3)cc(=O)n(C(C)C(=O)NCc3cccc(OC)c3)c21 (stereo unspecified),,inactive: 0.0789%
O=C(Nc1nnc(C2CC2)s1)C1COc2ccccc2O1 (stereo unspecified),,inactive: -10.2% [at 102 µM]
CCn1c(-c2ccc(F)cc2)n[nH]c1=S,"inconclusive: 2 µM [inhibitor, partial curve, poor fit]",
CCN(Cc1ccccc1)Cc1c(O)ccc2c(=O)c(-c3ccccc3)c(C(F)(F)F)oc12,"inconclusive: 0.708 µM [inhibitor, full curve, poor fit]",
COc1ccc(N2C(C)=CS/C2=C(/C#N)c2nnc(N3CCOCC3)n2-c2ccccc2)cc1,"inconclusive: 17.8 µM [inhibitor, single point]",
CCc1ccc(NC(=O)CSc2nnc(CNC(=O)c3ccco3)o2)cc1,,inactive: -4.35%
CC(C(=O)Nc1ccc(OCc2ccccc2)cc1)N1CCCC1 (stereo unspecified),"inconclusive: 79.4 µM [inhibitor, single point]",
CSc1nc2ccc3nc(NC(=O)c4ccc(Cl)s4)sc3c2s1,"inconclusive: 0.708 µM [inhibitor, partial curve, poor fit]",

SMILES,Potency,"activity, negative = inhibition"
N#CC1=C(N)OC2=C(C(=O)CCC2)C12CCN(C(=O)OCc1ccccc1)CC2,active: 50.1 µM,
CCC1CN(C(=O)N2CCC(C(=O)NCCc3ccccc3C)CC2)c2ccccc2O1 (stereo unspecified),"inconclusive: 11.2 µM [inhibitor, full curve, poor fit]",
O=C(NC(=S)NN1CCCCC1c1cccnc1)c1ccc(Br)cc1 (stereo unspecified),active: 44.7 µM,
O=C1CC(c2ccccc2)Sc2nc(-c3ccc(F)cc3)nn21 (stereo unspecified),"inconclusive: 28.2 µM [inhibitor, single point]",
Cc1ccc(CNC(=O)CCS(=O)(=O)c2ccc3c(c2)oc(=O)n3C)cc1,,inactive: 49% [at 102 µM]
Cc1ccc(Cl)cc1NC(=O)CSc1ccc(C(=O)O)cn1,,inactive: 9.4%
COc1cccc(C(=O)NNC2=C(C(=O)C(F)(F)F)CCC2)c1,,inactive: -5.34% [at 102 µM]
CSc1ccc(C(=O)C2CCCN(C(=O)c3nn(C)c(=O)c4ccccc34)C2)cc1 (stereo unspecified),active: 28.2 µM,
Cc1nc2nc(SCc3ccc(F)cc3Cl)nn2c(C)c1Cc1ccccc1,,inactive: 12.5%
Nc1ccccc1C(=O)C[C@H](N)C(=O)O,,inactive: 1.91%
O=C(NCc1ccc(S(=O)(=O)Nc2ccccc2Cl)s1)c1ccccc1,active: 79.4 µM,
COc1ccc(N/N=C(/C#N)S(=O)(=O)C(C)(C)C)cc1,active: 50.1 µM,
CCC1CN(C(=O)N2CCC(C(=O)Nc3cc(C)ccc3C)CC2)c2ccccc2O1 (stereo unspecified),,inactive: -37.6%
CCCCOc1ccc(C(=O)CCN2CCCCC2)cc1,active: 3.16 µM and active: 10 µM,
COc1ccc(CCNC(=O)CSc2nnc(-c3ccccc3)c3ccccc23)cc1OC,"inconclusive: 89.1 µM [inhibitor, single point]",
Cc1nc2nc(-c3ccc(Cl)cc3Cl)nn2c(C)c1CCC(=O)Nc1ccc(F)cc1,,inactive: 6.49%
CCN(CC)c1ccc(/C=N/N2CCN(Cc3ccccc3Cl)CC2)c(O)c1,active: 11.2 µM,
CCC(=O)OCCNc1cc(Sc2nccn2C)c2nonc2c1[N+](=O)[O-],"inconclusive: 17.8 µM [inhibitor, single point]",
CCOc1cc(CNc2ncnc3nc[nH]c23)ccc1OC,"inconclusive: 0.891 µM [inhibitor, full curve, poor fit]",
COC(C(=O)N/N=C(\C)CC(=O)Nc1ccc(Cl)cc1C)c1ccccc1 (stereo unspecified),,inactive: -14% [at 102 µM]
Cc1ccc(-n2ncc3c2CCCC3NC(=O)CCc2cnn(C)c2)cc1C (stereo unspecified),"inconclusive: 28.2 µM [inhibitor, partial curve, poor fit]",
NS(=O)(=O)c1ccc2nc(NC(=O)c3ccncc3)sc2c1,"inconclusive: 50.1 µM [inhibitor, partial curve, poor fit]",
CC(NC(=O)c1ccc(Nc2nc3ccccc3n3nnnc23)cc1)c1ccccc1 (stereo unspecified),,inactive: -12.3%
